From PMC11408250
Results are given in words; binding and its absence hold for the method and conditions named. Binding seen in cells or lysates may run through a third protein. Some binding calls cover weakened binding; strength is not graded here. Where a sequence is shown, tags or fusion partners need not be part of it. Blank lines part the entries; values can stand above or below the molecule they belong to.

Chains of the proteins cited; added tags and fusions are not shown. Residues count along the entry.
UniProt P15116, residues 160-906: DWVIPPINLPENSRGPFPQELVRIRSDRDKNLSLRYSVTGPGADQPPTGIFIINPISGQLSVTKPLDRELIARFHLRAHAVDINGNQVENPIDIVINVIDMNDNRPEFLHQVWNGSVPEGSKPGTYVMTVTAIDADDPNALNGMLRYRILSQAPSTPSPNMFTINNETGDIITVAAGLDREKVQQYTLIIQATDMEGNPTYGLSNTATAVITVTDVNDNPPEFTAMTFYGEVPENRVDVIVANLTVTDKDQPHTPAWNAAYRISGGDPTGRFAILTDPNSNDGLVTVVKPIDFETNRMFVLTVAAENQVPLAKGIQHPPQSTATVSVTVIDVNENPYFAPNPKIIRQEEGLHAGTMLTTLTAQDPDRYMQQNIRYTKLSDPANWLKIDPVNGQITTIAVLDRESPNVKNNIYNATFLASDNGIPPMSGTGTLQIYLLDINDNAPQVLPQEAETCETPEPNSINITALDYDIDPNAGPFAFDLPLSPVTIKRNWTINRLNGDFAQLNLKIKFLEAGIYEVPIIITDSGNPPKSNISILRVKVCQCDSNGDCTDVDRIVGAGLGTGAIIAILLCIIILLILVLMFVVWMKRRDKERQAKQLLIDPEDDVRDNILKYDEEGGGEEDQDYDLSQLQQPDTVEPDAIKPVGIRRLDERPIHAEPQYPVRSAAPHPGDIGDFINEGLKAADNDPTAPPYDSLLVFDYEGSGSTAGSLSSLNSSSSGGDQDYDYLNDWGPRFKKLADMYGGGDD
UniProt Q02248: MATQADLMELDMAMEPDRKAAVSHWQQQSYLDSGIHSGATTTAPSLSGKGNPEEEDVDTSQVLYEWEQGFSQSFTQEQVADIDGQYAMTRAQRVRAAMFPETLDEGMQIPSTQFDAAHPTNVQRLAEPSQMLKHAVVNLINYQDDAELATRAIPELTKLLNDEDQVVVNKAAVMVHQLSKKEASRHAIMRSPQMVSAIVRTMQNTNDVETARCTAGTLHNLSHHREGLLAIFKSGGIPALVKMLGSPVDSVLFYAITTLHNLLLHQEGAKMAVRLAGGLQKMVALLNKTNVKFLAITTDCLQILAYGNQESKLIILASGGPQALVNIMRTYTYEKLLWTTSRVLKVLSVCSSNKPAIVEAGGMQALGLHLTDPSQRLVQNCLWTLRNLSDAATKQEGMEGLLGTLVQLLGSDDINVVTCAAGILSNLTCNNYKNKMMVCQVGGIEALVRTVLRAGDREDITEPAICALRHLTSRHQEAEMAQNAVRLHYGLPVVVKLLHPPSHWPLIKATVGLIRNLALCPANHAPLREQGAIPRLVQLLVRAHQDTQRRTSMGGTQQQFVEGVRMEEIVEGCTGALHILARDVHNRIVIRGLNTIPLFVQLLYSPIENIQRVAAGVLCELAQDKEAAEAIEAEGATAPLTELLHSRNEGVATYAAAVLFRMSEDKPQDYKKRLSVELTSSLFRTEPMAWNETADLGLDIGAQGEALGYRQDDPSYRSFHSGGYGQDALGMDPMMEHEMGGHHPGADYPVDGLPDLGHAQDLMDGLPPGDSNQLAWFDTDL

What was measured:
[1] = biological target: T1, PCDH19-HA-FLAG (Protocadherin 19, endogenous in Pcdh19-HA-FLAG mice) (mouse (endogenous in mouse brain)) (UniProt Q80TF3); assay: co-IP; anti-FLAG IP of PCDH19-HA-FLAG from mouse hippocampus/cortex lysate of Experiment 2, western blot for PCDH19 and N-cadherin (Supplementary Fig. 2)
T1 sequence: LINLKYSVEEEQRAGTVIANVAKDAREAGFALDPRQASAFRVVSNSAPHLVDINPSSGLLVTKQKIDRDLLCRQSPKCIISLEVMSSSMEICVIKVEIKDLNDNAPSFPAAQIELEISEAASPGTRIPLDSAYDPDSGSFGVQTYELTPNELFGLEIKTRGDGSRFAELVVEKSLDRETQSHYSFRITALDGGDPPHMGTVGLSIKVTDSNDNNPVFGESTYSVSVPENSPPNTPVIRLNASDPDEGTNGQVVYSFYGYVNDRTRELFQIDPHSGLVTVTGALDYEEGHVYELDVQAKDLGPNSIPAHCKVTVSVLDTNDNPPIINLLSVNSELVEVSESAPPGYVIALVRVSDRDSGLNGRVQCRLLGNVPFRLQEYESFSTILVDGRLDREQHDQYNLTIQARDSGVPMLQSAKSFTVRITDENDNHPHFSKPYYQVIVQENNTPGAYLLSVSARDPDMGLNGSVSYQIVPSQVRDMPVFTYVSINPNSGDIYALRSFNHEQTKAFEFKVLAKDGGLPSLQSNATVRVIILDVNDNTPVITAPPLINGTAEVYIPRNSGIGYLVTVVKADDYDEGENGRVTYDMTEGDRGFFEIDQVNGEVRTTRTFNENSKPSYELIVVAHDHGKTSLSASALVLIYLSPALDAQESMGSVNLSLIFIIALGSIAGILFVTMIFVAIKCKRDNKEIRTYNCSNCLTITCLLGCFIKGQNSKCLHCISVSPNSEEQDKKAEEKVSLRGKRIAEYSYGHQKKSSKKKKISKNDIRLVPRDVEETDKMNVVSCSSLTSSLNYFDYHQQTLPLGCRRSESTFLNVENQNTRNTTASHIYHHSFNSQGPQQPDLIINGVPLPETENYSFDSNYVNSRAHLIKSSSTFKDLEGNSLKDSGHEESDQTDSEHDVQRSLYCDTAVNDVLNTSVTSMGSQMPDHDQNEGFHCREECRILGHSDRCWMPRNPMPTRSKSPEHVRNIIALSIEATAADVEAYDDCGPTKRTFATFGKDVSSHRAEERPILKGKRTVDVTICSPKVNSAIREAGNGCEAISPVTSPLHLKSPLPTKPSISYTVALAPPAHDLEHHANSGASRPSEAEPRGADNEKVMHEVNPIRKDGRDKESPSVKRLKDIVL

[2] = biological target: T1, PCDH19-HA-FLAG (Protocadherin 19, endogenous in Pcdh19-HA-FLAG mice) (mouse (endogenous in mouse brain)); assay: co-IP; PCDH19-HA-FLAG precipitated with anti-FLAG M2 or mouse IgG affinity gel from P5-6 mouse cortex/hippocampus lysate, overnight 4 °C; washes with 0.1% SDS in Wash Buffer; western blot with anti-PCDH19 and anti-β-catenin
[3] = biological target: T2, PCDH10 (pCMV-PCDH10-Myc/HA) (UniProt Q9P2E7); assay: co-IP; HEK293T transfected with epitope tagged CAPZA1, αN-catenin or β-catenin and PCDH10 or PCDH12; IP buffer; anti-c-Myc, anti-HA or anti-FLAG beads overnight at 4 °C; western blot
T2 sequence: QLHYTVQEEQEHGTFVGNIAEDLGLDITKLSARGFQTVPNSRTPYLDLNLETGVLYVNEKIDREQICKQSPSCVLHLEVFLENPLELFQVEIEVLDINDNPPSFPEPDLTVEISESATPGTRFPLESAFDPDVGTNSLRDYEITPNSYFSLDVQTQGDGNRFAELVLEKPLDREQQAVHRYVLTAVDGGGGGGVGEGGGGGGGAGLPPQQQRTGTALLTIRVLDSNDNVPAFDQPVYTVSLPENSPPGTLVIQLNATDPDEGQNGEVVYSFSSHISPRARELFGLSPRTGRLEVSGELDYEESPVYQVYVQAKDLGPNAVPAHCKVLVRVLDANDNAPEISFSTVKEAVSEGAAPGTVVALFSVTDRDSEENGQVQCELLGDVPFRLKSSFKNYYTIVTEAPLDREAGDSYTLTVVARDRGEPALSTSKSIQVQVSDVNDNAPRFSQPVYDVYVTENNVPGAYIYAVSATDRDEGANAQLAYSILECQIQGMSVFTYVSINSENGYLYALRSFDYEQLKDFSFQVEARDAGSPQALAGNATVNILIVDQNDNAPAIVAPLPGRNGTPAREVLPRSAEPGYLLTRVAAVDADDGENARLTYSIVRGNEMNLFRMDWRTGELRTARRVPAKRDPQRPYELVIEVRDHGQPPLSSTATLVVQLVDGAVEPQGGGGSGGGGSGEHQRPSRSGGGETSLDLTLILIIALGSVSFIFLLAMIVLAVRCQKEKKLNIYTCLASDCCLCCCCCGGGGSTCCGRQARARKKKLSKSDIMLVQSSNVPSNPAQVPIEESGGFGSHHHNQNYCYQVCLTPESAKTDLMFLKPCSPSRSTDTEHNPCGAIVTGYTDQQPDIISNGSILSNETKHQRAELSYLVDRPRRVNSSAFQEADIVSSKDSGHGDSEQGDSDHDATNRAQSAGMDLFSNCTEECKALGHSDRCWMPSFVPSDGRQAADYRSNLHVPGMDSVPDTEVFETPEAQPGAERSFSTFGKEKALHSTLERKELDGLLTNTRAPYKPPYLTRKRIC

[4] = biological target: T3, PCDH12 (pCMV-PCDH12-Myc/HA) (UniProt Q9NPG4); assay: as above
T3 sequence: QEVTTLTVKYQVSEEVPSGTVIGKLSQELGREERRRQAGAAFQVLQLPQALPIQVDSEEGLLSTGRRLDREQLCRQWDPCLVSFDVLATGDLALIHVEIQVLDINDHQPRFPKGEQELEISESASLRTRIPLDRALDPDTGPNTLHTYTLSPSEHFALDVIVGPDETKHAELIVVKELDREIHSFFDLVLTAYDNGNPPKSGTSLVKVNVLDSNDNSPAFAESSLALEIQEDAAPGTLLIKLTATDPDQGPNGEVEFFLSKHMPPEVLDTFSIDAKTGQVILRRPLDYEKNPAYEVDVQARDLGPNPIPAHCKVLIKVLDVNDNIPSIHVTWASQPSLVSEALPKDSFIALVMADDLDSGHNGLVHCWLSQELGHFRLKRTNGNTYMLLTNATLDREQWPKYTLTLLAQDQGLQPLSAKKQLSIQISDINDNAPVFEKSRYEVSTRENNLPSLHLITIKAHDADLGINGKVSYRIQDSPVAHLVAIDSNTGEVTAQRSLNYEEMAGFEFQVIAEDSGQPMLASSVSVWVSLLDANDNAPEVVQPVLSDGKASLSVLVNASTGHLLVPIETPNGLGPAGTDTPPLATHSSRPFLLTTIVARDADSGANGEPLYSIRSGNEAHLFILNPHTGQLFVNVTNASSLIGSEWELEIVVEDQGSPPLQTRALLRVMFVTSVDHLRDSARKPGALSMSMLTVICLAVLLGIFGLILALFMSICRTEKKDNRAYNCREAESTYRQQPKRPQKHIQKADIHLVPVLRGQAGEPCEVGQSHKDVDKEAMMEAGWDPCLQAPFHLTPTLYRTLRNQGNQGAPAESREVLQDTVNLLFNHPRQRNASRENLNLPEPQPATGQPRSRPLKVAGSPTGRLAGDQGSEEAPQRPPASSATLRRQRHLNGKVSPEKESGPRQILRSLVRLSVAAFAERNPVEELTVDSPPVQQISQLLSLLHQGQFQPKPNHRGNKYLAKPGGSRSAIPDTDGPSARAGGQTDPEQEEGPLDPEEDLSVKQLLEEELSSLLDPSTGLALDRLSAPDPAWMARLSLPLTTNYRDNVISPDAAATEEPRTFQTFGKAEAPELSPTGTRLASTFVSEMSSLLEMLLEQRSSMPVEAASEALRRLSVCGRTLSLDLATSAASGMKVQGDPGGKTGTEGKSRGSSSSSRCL

[5] = biological target: T4, Myc-PCDH19-FLAG full length (FL), isoform with Exon 2 (+Ex2) (human) (UniProt Q8TAB3); assay: co-IP; HEK293T transfected with tagged constructs, lysed in IP buffer; Myc-PCDH19-FLAG precipitated with anti-FLAG agarose beads overnight at 4 °C; western blot for the HA-tagged partner
T4 sequence: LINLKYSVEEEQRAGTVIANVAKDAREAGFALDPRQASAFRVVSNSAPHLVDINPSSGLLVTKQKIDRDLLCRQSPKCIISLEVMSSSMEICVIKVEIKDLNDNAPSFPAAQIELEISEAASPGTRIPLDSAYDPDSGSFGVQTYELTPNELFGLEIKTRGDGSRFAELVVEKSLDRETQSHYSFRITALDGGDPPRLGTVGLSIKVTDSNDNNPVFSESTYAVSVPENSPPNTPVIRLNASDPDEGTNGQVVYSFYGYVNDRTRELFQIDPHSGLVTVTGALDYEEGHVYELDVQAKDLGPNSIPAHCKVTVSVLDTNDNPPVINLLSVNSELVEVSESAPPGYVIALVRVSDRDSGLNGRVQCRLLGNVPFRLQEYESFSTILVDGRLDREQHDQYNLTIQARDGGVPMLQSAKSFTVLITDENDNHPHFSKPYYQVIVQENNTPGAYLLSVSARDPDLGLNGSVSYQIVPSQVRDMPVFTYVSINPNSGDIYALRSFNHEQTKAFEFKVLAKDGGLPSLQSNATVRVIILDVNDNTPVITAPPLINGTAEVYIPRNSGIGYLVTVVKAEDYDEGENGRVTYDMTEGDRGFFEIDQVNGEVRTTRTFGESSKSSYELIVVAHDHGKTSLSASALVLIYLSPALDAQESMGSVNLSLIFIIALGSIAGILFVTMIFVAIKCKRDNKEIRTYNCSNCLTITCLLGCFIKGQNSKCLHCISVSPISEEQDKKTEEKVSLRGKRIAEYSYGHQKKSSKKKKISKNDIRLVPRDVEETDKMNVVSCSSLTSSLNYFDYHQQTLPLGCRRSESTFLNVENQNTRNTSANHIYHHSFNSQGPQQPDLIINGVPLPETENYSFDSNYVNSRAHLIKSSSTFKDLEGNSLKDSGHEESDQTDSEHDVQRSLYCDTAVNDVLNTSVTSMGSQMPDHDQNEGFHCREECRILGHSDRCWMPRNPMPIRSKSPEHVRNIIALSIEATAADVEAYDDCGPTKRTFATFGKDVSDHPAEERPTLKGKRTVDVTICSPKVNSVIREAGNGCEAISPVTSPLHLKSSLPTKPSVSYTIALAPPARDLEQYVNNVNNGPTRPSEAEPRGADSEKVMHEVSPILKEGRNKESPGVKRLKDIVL

binding [1]: binds
Molecule: N-cadherin (mouse, endogenous) (from UniProt P15116 160-906)

binding [2]: binds
Molecule: β-catenin (mouse, endogenous) (from UniProt Q02248 1-781)

binding [3]: no binding
binding [4]: no binding
binding [5]: binds
B1: αN-catenin-HA (CTNNA2, human) (protein, UniProt P26232 1-953)
chain: MTSATSPIILKWDPKSLEIRTLTVERLLEPLVTQVTTLVNTSNKGPSGKKKGRSKKAHVLAASVEQATQNFLEKGEQIAKESQDLKEELVAAVEDVRKQGETMRIASSEFADDPCSSVKRGTMVRAARALLSAVTRLLILADMADVMRLLSHLKIVEEALEAVKNATNEQDLANRFKEFGKEMVKLNYVAARRQQELKDPHCRDEMAAARGALKKNATMLYTASQAFLRHPDVAATRANRDYVFKQVQEAIAGISNAAQATSPTDEAKGHTGIGELAAALNEFDNKIILDPMTFSEARFRPSLEERLESIISGAALMADSSCTRDDRRERIVAECNAVRQALQDLLSEYMNNTGRKEKGDPLNIAIDKMTKKTRDLRRQLRKAVMDHISDSFLETNVPLLVLIEAAKSGNEKEVKEYAQVFREHANKLVEVANLACSISNNEEGVKLVRMAATQIDSLCPQVINAALTLAARPQSKVAQDNMDVFKDQWEKQVRVLTEAVDDITSVDDFLSVSENHILEDVNKCVIALQEGDVDTLDRTAGAIRGRAARVIHIINAEMENYEAGVYTEKVLEATKLLSETVMPRFAEQVEVAIEALSANVPQPFEENEFIDASRLVYDGVRDIRKAVLMIRTPEELEDDSDFEQEDYDVRSRTSVQTEDDQLIAGQSARAIMAQLPQEEKAKIAEQVEIFHQEKSKLDAEVAKWDDSGNDIIVLAKQMCMIMMEMTDFTRGKGPLKNTSDVINAAKKIAEAGSRMDKLARAVADQCPDSACKQDLLAYLQRIALYCHQLNICSKVKAEVQNLGGELIVSGTGVQSTFTTFYEVDCDVIDGGRASQLSTHLPTCAEGAPIGSGSSDSSMLDSATSLIQAAKNLMNAVVLTVKASYVASTKYQKVYGTAAVNSPVVSWKMKAPEKKPLVKREKPEEFQTRVRRGSQKKHISPVQALSEFKAMDSF
